± gives the standard deviation of the averaged measurements. The list shows a part of the results.

The assay relates to PfAP2-G AP2 domain (GST-tagged). Put plainly: gcPBM binding intensity (ln(normalized median fluorescence intensity)); higher = stronger DNA binding. Summed up: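 Binding intensity values are the highest Masliner-normalised natural-log median intensity among replicate spots of either probe orientation. The binding step lasted 1 h in 1× PBS with 1% milk, 0.2 mg/ml BSA, 0.5% salmon testes DNA and 0.03% Triton X-100, using GST-tagged P. falciparum DNA-binding domains expressed in E. coli on an Agilent 4 × 180k array of primer-extended double-stranded 36-bp intergenic genomic probes plus negative controls. Alexa488 anti-GST antibody and a 488 nm scan detected bound protein.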
With “ATATCACATTCCACGGTACACACTAATAGAAAAATC [CACACA_site9204]”, the “gcPBM binding intensity (ln)” value worked out at 11 ± 0.57.

Take “GGAACATATGAACTCACACACATTTTCACTTAAATA [CACACA_site3684]”: the “gcPBM binding intensity (ln)” value was 10.2 ± 0.16.

As to “TATTTTTAGAAAATAAAGAAGGAGAATTGAAAATAT [CACACA_negctrl_site361]”, the “gcPBM binding intensity (ln)” value was 9.93.

Take “AAGAAAAGATATATATATAAATATATATATATATAT [TGCATGCA_negctrl_site353]”: the “gcPBM binding intensity (ln)” value was determined as 9.73 ± 0.61.

In the case of “ATTTATTTTTATCAAGCATGCATAAAAAATAAATTA [TGCATGCA_site440]”, the “gcPBM binding intensity (ln)” value came to 9.84 ± 0.2.

Regarding “TTTTATTTTGGAACGTGTACATATAATTATTTATTG [XGTACX_site8094]”, the “gcPBM binding intensity (ln)” value was determined as 11.4 ± 0.79.

Regarding TTTAAACTAGAACAAGTGCAGATATGTATAATAATA, the “gcPBM binding intensity (ln)” value stood at 10.1 ± 0.16.

Turning to “ATACCTTCTTCATTCACACATATACGTAAAATGTTC [CACACA_site5657]”, the “gcPBM binding intensity (ln)” value amounted to 10.4 ± 0.25.

As to “AAAATATATACAAGCAAACACACGTAATATATATTA [CACACA_site2152]”, the “gcPBM binding intensity (ln)” value was determined as 9.945 ± 0.021.

As for “GCATAAAATATGATCGCACACTGTTTAAAATACTTA [CACACA_site828]”, the “gcPBM binding intensity (ln)” value was 10.2 ± 0.21.

Take “ATATTACTAATTAATGGTACACGTTATAATAAACTA [XGTACX_site7051]”: the “gcPBM binding intensity (ln)” value was found to be 11.1 ± 0.68.

For “AGGTAGTTCTGTATCACACACATATAAATATAAATA [CACACA_site7110]”, the “gcPBM binding intensity (ln)” value was found to be 10.2 ± 0.27.

For “ATAACAAATATGATAGCATGCTACATATTACAACTT [TGCATGCA_site524]”, the “gcPBM binding intensity (ln)” value amounted to 9.71 ± 0.16.

Take “AGAAGAAAAGAAATATGTACATAAACGTCTGAACTA [XGTACX_site1699]”: the “gcPBM binding intensity (ln)” value amounted to 11.2 ± 0.68.

With “GTTCCATATATTACATGTACATATTTTTACATTTAA [XGTACX_site660]”, the “gcPBM binding intensity (ln)” value is 11.2 ± 0.72.

On to “TGATTAATAGCAGGTAGTACTATAATAATATAAATA [XGTACX_site2776]”, for which the “gcPBM binding intensity (ln)” value was found to be 11.4 ± 0.81.

For “TGACATAAATTTAATACACACACAAAGAAAAAAAAA [CACACA_site9354]”, the “gcPBM binding intensity (ln)” value was determined as 10.4 ± 0.23.

Consider “TTTAAAAAAAAAAAAAAAAATTCTACATGTAATTTA [CACACA_negctrl_site1205]”, for which the “gcPBM binding intensity (ln)” value was 9.38 ± 0.028.

As to “GTGTGTGTATATATTTGTACATATATTTAAACATAT [XGTACX_site1074]”, the “gcPBM binding intensity (ln)” value worked out at 11.4 ± 0.71.

Consider “TATACATAAATTATATGTACTGAAAATACATAATTA [XGTACX_site3626]”, for which the “gcPBM binding intensity (ln)” value stood at 11 ± 0.76.

Turning to “ATTCCCTTAAGAAACTGTACAAAACTTTCTTCGATT [XGTACX_site775]”, the “gcPBM binding intensity (ln)” value came out at 10.6 ± 0.33.

Take “CACAGATATATACATACACACATATATACACATATA [CACACA_site6323]”: the “gcPBM binding intensity (ln)” value was determined as 10.1 ± 0.11.

Take “ATCGAGAAAAATAAAATAATACAATTTCTTTAAATA [XGTACX_negctrl_site162]”: the “gcPBM binding intensity (ln)” value worked out at 9.56.

“GGTAGGTGGATATATACACACATATATTATAGATAT [CACACA_site7021]”: the “gcPBM binding intensity (ln)” value turned out to be 10.3 ± 0.23.

Turning to “AAAAAAAAAAAAGAAACACACACATTTGTATATAAT [CACACA_site8648]”, the “gcPBM binding intensity (ln)” value was found to be 9.94.

Consider “GAAACATAAAAATATATTGAAATAGTATCATGGGTA [CACACA_negctrl_site352]”, for which the “gcPBM binding intensity (ln)” value was found to be 10.2 ± 0.2.

Turning to “TATAGTTATATTAGAAGTACTTCATTTTAACATATT [XGTACX_site7101]”, the “gcPBM binding intensity (ln)” value stood at 11.5 ± 1.2.

For “TTTTTTTTGTATTAATGTACATATAACTTTTTTTTT [XGTACX_site7903]”, the “gcPBM binding intensity (ln)” value stood at 11.1 ± 0.72.

“TTAATTACATGTTATTGTACGTATTTTCTATCTATC [XGTACX_site844]”: the “gcPBM binding intensity (ln)” value was found to be 11.6 ± 1.2.

Turning to “TTTTTTTTTTCTTAGGTGCAAAAAATAAGTATATAT [GTGCAC_site9394]”, the “gcPBM binding intensity (ln)” value was determined as 10.4 ± 0.45.

“AAAAAAAAAAGAACCCGTACATAAATAATATATATA [XGTACX_site164]”: the “gcPBM binding intensity (ln)” value came out at 11.1 ± 0.86.

With “AAAAAGAAGAATATATGTACACAAAATTTATGAGTT [XGTACX_site8609]”, the “gcPBM binding intensity (ln)” value worked out at 11.4 ± 0.81.

“AAAAAAAAAAATATATTATTTTACTTGTTTATTTTA [CACACA_negctrl_site1447]”: the “gcPBM binding intensity (ln)” value was found to be 9.38 ± 0.19.

For “CATTATAAGAAACACACACACATATATATATATATA [CACACA_site1051]”, the “gcPBM binding intensity (ln)” value was found to be 10.1 ± 0.28.

For “AAATTCTTAACCCAACGTACATATAATAAATTCTTA [XGTACX_site8538]”, the “gcPBM binding intensity (ln)” value was 11.1 ± 0.65.

For the sequence “TAAACCAAACAATTATGTATAAGATGTATATATATA [GTGCAC_negctrl_site438]”, the “gcPBM binding intensity (ln)” value was 9.88 ± 0.45.

For the sequence “CTTACAAATAAACAACGTACTTATTCGAATTATGCT [XGTACX_site2431]”, the “gcPBM binding intensity (ln)” value was determined as 11 ± 0.47.

Regarding “AAAAAAATTCTTGGCGCACACACTTTAAAAATTAAA [CACACA_site597]”, the “gcPBM binding intensity (ln)” value turned out to be 10.5 ± 0.34.

For “AAGGATTACAAAAAAAGTACAAATGGATTTTTTCCC [XGTACX_site8905]”, the “gcPBM binding intensity (ln)” value was 11.3 ± 0.81.

Consider “AACCACATGGTGTAATGTACATTACCTTAACAATAA [XGTACX_site3055]”, for which the “gcPBM binding intensity (ln)” value was 10.7 ± 0.42.

Take “AAATATTATATATATACACACACACCGGCATGCACA [CACACA_site7916]”: the “gcPBM binding intensity (ln)” value was 9.885 ± 0.049.

With “TATAATAAAATTGGTAGTACATTAATTTATGTATAG [XGTACX_site3059]”, the “gcPBM binding intensity (ln)” value turned out to be 11.5 ± 1.1.

On to “TATTATTTTTTTTTTTGTACATATATGTATATATAT [XGTACX_site8471]”, for which the “gcPBM binding intensity (ln)” value was found to be 10.9 ± 0.61.

In the case of “CATACAGACGAACACACACACATATAAATATAAATA [CACACA_site6443]”, the “gcPBM binding intensity (ln)” value came out at 10.2 ± 0.25.

Take “TACATATATAAAAATTGTACACTTCATAAGAAAAAA [XGTACX_site4347]”: the “gcPBM binding intensity (ln)” value is 11.2 ± 0.7.

On to “TTAAATAAGTTCTTCACACATATATATATATATATA [CACACA_site4742]”, for which the “gcPBM binding intensity (ln)” value was 10.1 ± 0.36.

With “AAATGCGCCATGTGTACACATATATATATATATATA [CACACA_site4649]”, the “gcPBM binding intensity (ln)” value was determined as 11.5 ± 0.88.

As for “GTTTTAAAATTAAATATTATGGCATAATTCAAGAAA [GTGCAC_negctrl_site721]”, the “gcPBM binding intensity (ln)” value was determined as 10 ± 0.11.

For the sequence “AAAATTTTTTAACACTGTACTTGTAATATTAAAACT [XGTACX_site8369]”, the “gcPBM binding intensity (ln)” value was found to be 11.5 ± 1.

As for “TTTTTTTTTTATTTTTGTACATATATTTCAGTATTA [XGTACX_site8396]”, the “gcPBM binding intensity (ln)” value is 11 ± 0.71.

Regarding TAATTATTCTATTAAGTGCATATATTTTTAAAAAGA, the “gcPBM binding intensity (ln)” value was 9.925 ± 0.092.

Consider “ATAATATTCGAGTGTGCACACAAACATACATATATA [CACACA_site3396]”, for which the “gcPBM binding intensity (ln)” value came to 10.6 ± 0.43.

Regarding “ATTTTTATTAAAATATGTACGTATTTTACTCATACA [XGTACX_site5330]”, the “gcPBM binding intensity (ln)” value amounted to 11.6 ± 0.8.

“ATACAGAAAAAAAACACACACACATAATATACATAC [CACACA_site1933]”: the “gcPBM binding intensity (ln)” value is 10.11 ± 0.078.

On to “ACAGATATATTTATTTGTACATATCACCAAAATGGA [XGTACX_site5644]”, for which the “gcPBM binding intensity (ln)” value amounted to 10.9 ± 0.26.

Turning to “ATATATATATATCACCGTACTTATATAATAACATGA [XGTACX_site4398]”, the “gcPBM binding intensity (ln)” value worked out at 10.9 ± 0.6.

Turning to “AAAAATGAGAAACACACACACATATATATATATATA [CACACA_site2228]”, the “gcPBM binding intensity (ln)” value was determined as 10 ± 0.31.

Values taken from the supplement of paper PMC11417369.
